Read counts are not given, so values of variants with three or more changes are uncertain.
B1: LINE1-mini (parent)
chain: GGCAGAGCUCAACACAGCGUGGCAAAGUGGCUGUGGCUAGACUGCC

Variants of: B1
Test: self-cleavage, relative activity (ratio to wild type); higher = more cleavage; in vitro, sequencing; the parent is a self-cleaving ribozyme

Variant	self-cleavage
GGCAGAGAUCAACAGAUCGUGGCAAAGUGGCUGUGGCUAUACUGCC [C8A C15G G17U G40U]	0.05
GGCAGAGCUCAACACAGCGUGGCGAAGUGGAUGUGGCUAGACUUCC [A24G C31A G44U]	0.04
GGCAGAGCUCAACACAGCGUUGCAAAGUGGCUGUGGCGAGACUCCC [G21U U38G G44C]	0.02
GGCAGAGCCCAACACAGCGUGGCAAAGUGGCUGUGGCUCGACUGCA [U9C A39C C46A]	0.03
GGGAGAGCUCAAAACAGCGUGGCAAAUUGGCUCUGGCUAGACUGCC [C3G C13A G27U G33C]	0.09
GGUAGCGCUCAACACAGCGUGGCACAGUGGCUCUGGCUAAACUGCC [C3U A6C A25C G33C G40A]	0.08
GGCAGAGCUAAACACAGCGUGGCAAAGUGGCUGUGGCUAGACUUUC [C10A G44U C45U]	0.01
GGCAGAGCUUACCACUGCGUGGCAAAGUGGCUGUGGCUAGACUGCC [C10U A12C A16U]	0.06
GGCAGAGUUCAACCCCGCGUGGAAAUGCGGCUGUGGCUAGACCGCC [C8U A14C A16C C23A A26U U28C U43C]	0.22
GUCAGAGCUCAACACAGCCUGGCAAAGUGACAGUGGCUGGACUGCC [G2U G19C G30A U32A A39G]	0
GGGAGAGCUCAACACAGCGUGGCAAAGGGGGUUUGGUUAGACUGCC [C3G U28G C31G G33U C37U]	0.03
GGCUGAGCUCAACACAGCGUCGCAAAGAGCCUGUGGCUAGACUGCC [A4U G21C U28A G30C]	0.05
GGCAAAGCUCAACACAGCGUGGCAAGGUGGCUGUGGAUAGACUGCC [G5A A26G C37A]	0.11
GGCAGGGAUCAACACAGCGCGGCAAAGUGGCUGUGGCUAAACUGGC [A6G C8A U20C G40A C45G]	0.01
GGCAUAGCUCAACACAGCGUGGAAAAGUGGCUGUGGCUUGACUGCC [G5U C23A A39U]	0.04
GGCAGAGCUCAACACAGCGUGGCCAAGUGGCUAUGGCUAGACUGCU [A24C G33A C46U]	0.03
GGCAGAGGUCAACACGGAGUGGCAAAGUGGCUGUGGCUAGACUGCC [C8G A16G C18A]	0.04
UGCAUAGCUCAACACAGCGUGGCAAAGUGGCUGUGGCUAUACUGCC [G1U G5U G40U]	0.02
GGCAGAGCUCCACACAGCGUGGCAAAGUGGCUGCGCCUAGACUGCC [A11C U34C G36C]	0.01

Variant	self-cleavage
GGCAGAGAUCAACACAACGUGGCAAAGUGGGUGUGGCUAGACUGCC [C8A G17A C31G]	0.16
UCCAGAGCUGAGCACAUCGUGGCAAAGUGGCUGUUGCUAGACUGCC [G1U G2C C10G A12G G17U G35U]	0.01
GGCAGACCACAACACUGCGUGGCAAAGUGGCUGUGGCUAGACUGCC [G7C U9A A16U]	0.03
GGCAGAGCUCAACACAGAGUGGCGAAGUGGCUGUGGCGAGACUACC [C18A A24G U38G G44A]	0
GGCAGAGCUCAACCCAGCGUGUCAAAGUGGCUGUGGCUCGACUGCC [A14C G22U A39C]	0.08
GGCAGCGCUUAACACAGCGUGGCAAAGUGGCUCUGGCUAGACUGCC [A6C C10U G33C]	0.01
GGCAGAGCUCAACACAACGUGGAAUAGUGGCUGUGGCUCGACUGCC [G17A C23A A25U A39C]	0.03
GGCUGAGCCCAAGACAGCGUGGCAUAGUGGCUGUGGUCAGACUGCC [A4U U9C C13G A25U C37U U38C]	0.02
UGCAGAGCUCAACACAGCGUGGCAAAUUUGCUGUGGCUAGACUGCC [G1U G27U G29U]	0.36
GGCAGAGCUCAACCCAGCGUGGCAAAGUGGCUCUGGUUAGACUGCC [A14C G33C C37U]	0.03
GUCAGAGCUCAACACAGCGUGGCAAAGUGGUUGUGGCUAGAGUGCC [G2U C31U C42G]	0.01
GGCAGAGCACAUCACAGCGUGGCGAAGAGGCUGUGGCUAGACUGCC [U9A A12U A24G U28A]	0.12
GGCAGAGCUCAACACAGCGUGGCACAGUGGCUGUGACUAGACUGCU [A25C G36A C46U]	0.04
GGCAGAGAUUAACACAGCGUGGAAAAGUGGCUGUGGCUAGACUGCC [C8A C10U C23A]	0.12
GGCAUAGCUCAACACAGUGUGGCCAAGCGGCUGAGGCUACACUGCC [G5U C18U A24C U28C U34A G40C]	0.01
GGCAGAGCUCAACACAGCGUGGCAAAGUGGCUCUGGCUAGACUGGA [G33C C45G C46A]	0.02
GGCGGAGCACAACACCGCGUUGCAAAGUGGUUGUGGCUAGACUGCC [A4G U9A A16C G21U C31U]	0.03
GGCAGAGGUCAACACAGCGUGGAAAAGUAGCUGUGGCUAGACUGCC [C8G C23A G29A]	0.07
GUCAGAGCUCAAUACACCGUGGCAAAGUGGCUGUGGCUAGACUGCC [G2U C13U G17C]	0.02

Variant	self-cleavage
GGAAGAUCGCAAAACAGCGUGGCAAAGUGGCUUUGGCUAGACUGGC [C3A G7U U9G C13A G33U C45G]	0.15
GUCAGAGCUCAACACCUCGUGGCAAAGUGGCUGUGGCUAGACUGCC [G2U A16C G17U]	0.02
GGCAGAGCUCAACACACCGCGGCAAAGUGGCUGUGGCUAGACAGCC [G17C U20C U43A]	0.05
GGCAGAGCUCUACACACCGUGGCAAAGUGGCUGGGGCUAGACUGCC [A11U G17C U34G]	0.01
GGCAGAGCUCAACACAGCGUAGCAAAGUCGUUGUGUCUAGACUGCC [G21A G29C C31U G36U]	0.21
GGUAGAGCUCGACACAGAGUGCCAAAGUGGCGGUGGCUAGACUGCC [C3U A11G C18A G22C U32G]	0.01
CGCAGAGCUCAACACAGCGUGGAAACGUGGCCGUGGCUAGACUGCC [G1C C23A A26C U32C]	0.04
CGCAGUGCUCAACACAGCGUGGCAAAGUGGCUGUUGCUAGACUGCC [G1C A6U G35U]	0
GGCAGAGAUCAACACAGCGUGGCAAAGCGGCUGUGCCUAGACUGCC [C8A U28C G36C]	0.04
GGCAGAGCUCAACACAGUGUGGCAAAGUGGCUGUAACUAGACUGCC [C18U G35A G36A]	0.1
GGCAGAGCUCAACACAGCUUGGCAAAGUGAGUGUGUCUAGACUGCC [G19U G30A C31G G36U]	0.07
GGCAGAUCUCAACACAGCGUGGAAAAGUGGCUGUGGCUAGACUGUC [G7U C23A C45U]	0.11
GGCAGAGUUCAACACAGCGUGGCAAAGUUGCUGUGGCUAGACUGCA [C8U G29U C46A]	0.14
GGCAGAGCUCAAGACAGUGUGGAAAAGUGGCUGUGGCUAGACUGCC [C13G C18U C23A]	0.28
CGCAGAGCUCAACAAAGCGUGGCAAAGUGGCUGUGGCGAGACUGCC [G1C C15A U38G]	0.02
GGCAGAUCUCAACACAGCGUGGCAAAGUGGCAGUGUCUCGACUGCC [G7U U32A G36U A39C]	0.12
GGCUGAGCUCAACACAGCACGGCAAAGUGGCUGUGGCUAGAAUGCC [A4U G19A U20C C42A]	0.23
GGCAGAGCUCAACAUAGCGUGGCAAAGUGGCUGUGGCUAAACGGCC [C15U G40A U43G]	0.09

Source: the RNAGym collection of RNA variant scans (doi:10.7554/elife.90254)
